Assay results from PubChem BioAssay AID1745845 (National Center for Advancing Translational Sciences (NCATS), 2022).
“And” between values parts separate entries of the source, which are not always exact repeats. Equal values may be shown once. The campaign covered roughly 360,000 compounds. About 2,600 (0.72%) were called active. Inconclusive results, whose numbers are uncertain, are shown with a selection of clear calls. Calls follow the shape of the dose curve; as a rule, active = well fitted inhibition curve with a large enough effect; inconclusive = small, poorly fitted or top-dose-only effect; inactive = no such curve, though single readings can be large or run the other way. Where the call is inconclusive, the potency comes from a doubtful curve fit. The source holds several records for some structures; these can differ, active in one and inactive in another.

Assay: Primary qHTS for Inhibitors of ATXN expression; also: nearly all actives have a fitted effect of over 55% in size
Conditions: HEK-293 ATXN2-luciferase reporter, luminescence, 24 h; activity change, negative = inhibition: at 57 µM (top of the series)
How it was run: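 ATXN2-luciferase reporter cells (luciferase flanked by upstream and downstream ATXN2 gene portions) were treated 24 h at 37 °C with compounds at up to 57 uM. SteadyGlo luminescence gave expression; GF-AFC fluorescence gave viability.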
% is scaled to controls: 0 for no effect and ±100 for the full control effect; potency is read from the fitted curve at half-maximal effect; tags tell the direction and shape of the fitted curve.

SMILES	Potency	activity change, negative = inhibition
CC(=O)c1cccc(NC(=O)c2ccc3nc(Cc4ccccc4)oc3c2)c1	inconclusive: 8.91 µM [inhibitor, partial curve]	–
NC1=NC(=Nc2ccccc2)c2ccccc21	inconclusive: 28.2 µM [inhibitor, single point]	–
CCOc1cccc2sc(N(CCCN(C)C)C(=O)c3ccc(S(=O)(=O)N(CC)Cc4ccccc4)cc3)nc12	inconclusive: 25.1 µM [inhibitor, single point]	–
CN(C)c1ccc(CN2CCC(C(=O)NC(c3ccc(F)cc3)c3ccc4ccccc4n3)CC2)cc1 (centres undefined)	inconclusive: 39.8 µM [inhibitor, single point]	–
CC(=NNC(=S)Nc1ccccc1Cl)c1ccccn1	inconclusive: 0.0212 µM [inhibitor, full curve, poor fit]	–
CCCCCCCCn1ccc(=N)cc1	inconclusive: 15 µM [inhibitor, partial curve, poor fit]	–
CCN1CCN(Cc2c(O)ccc3oc(C)c(C(=O)Nc4cccc(C(F)(F)F)c4)c23)CC1	inconclusive: 22.4 µM [inhibitor, single point]	–
CC(C)(C)c1ccc(C(=O)Nc2ccc(-c3nc4ccccc4o3)c(O)c2)cc1	–	inactive: 9%
CCOc1ccc(-c2nnc(SCC(=O)Nc3cccc(C#N)c3)o2)cc1	–	inactive: 8.02%
CC(=O)O[C@H]1[C@H](O)[C@H](Oc2c(O)c(C)c3c4c2[C@@H](C)CC[C@@H]4[C@@H](C)C[C@H]3C=C(C)C)O[C@@H](C)[C@H]1O	inconclusive: 39.8 µM [inhibitor, single point]	–
CNC(=O)C1CCC(Cn2c(=O)c3sccc3n(CC(=O)N3CCCC(C)C3)c2=O)CC1 (centres undefined)	–	inactive: 0.57%
COc1ccc(Cl)c(-c2cc(C(=O)Nc3ccc(F)cc3)[nH]n2)c1	–	inactive: 6.39%
Cc1nn(-c2ccccc2)c(C)c1/C=N/NC(=O)CSc1nc2ccccc2c(=O)n1-c1ccccc1	inconclusive: 25.1 µM [inhibitor, partial curve, poor fit]	–
Oc1cc(NCc2ccc(F)cc2)cc2cccnc12	inconclusive: 31.6 µM [inhibitor, single point]	–
CN(CC(=O)Nc1ccc(Cl)cc1)S(=O)(=O)c1cccc2cccnc12	inconclusive: 20 µM [inhibitor, partial curve, poor fit]	–
COc1cc(-c2nc(SCC(=O)Nc3ccc4c(c3)OCO4)c(-c3ccccc3)[nH]2)cc(OC)c1OC	inconclusive: 31.6 µM [inhibitor, partial curve, poor fit]	–
COc1ccc(-c2nnc(C3CCN(S(=O)(=O)c4cccc(Cl)c4)CC3)o2)cc1	active: 17.8 µM	–
Cc1cccc2sc(N(CCCN(C)C)C(=O)CCc3ccccc3)nc12	inconclusive: 25.1 µM [inhibitor, single point]	–
O=C1CC(=C(c2ccccc2)c2ccccc2)C(=O)N1CCN1CCN(c2cccc(Cl)c2)CC1	inconclusive: 28.2 µM [inhibitor, partial curve, poor fit]	–
Cc1ccc2[nH]c(=O)c(C3C(C#N)=C(N)Oc4c3ccc3cccnc43)cc2c1 (centres undefined)	inconclusive: 35.5 µM [inhibitor, single point]	–

SMILES	Potency	activity change, negative = inhibition
Oc1ccc(/C=N/Nc2nc(-c3ccc(Cl)cc3)cc(C(F)(F)F)n2)cc1	inconclusive: 39.8 µM [inhibitor, single point]	–
CCCC(c1nnnn1C(C)(C)CC)N(Cc1ccco1)Cc1cc2ccc(OC)cc2[nH]c1=O (centres undefined)	inconclusive: 35.5 µM [inhibitor, single point]	–
COc1ccc(CCNC(=O)CCCn2c(=O)c3ccccc3n(Cc3ccccc3)c2=O)cc1OC	inconclusive: 15.8 µM [inhibitor, partial curve, poor fit]	–
CC1Cc2ccccc2N1S(=O)(=O)c1ccc2c(c1)n(C)c(=O)c(=O)n2C (centres undefined)	inconclusive: 39.8 µM [inhibitor, single point]	–
Cc1ccc(NC(=O)C2CCN(S(=O)(=O)c3ccc4c(c3)NC(=O)C(C)S4)CC2)cc1C (centres undefined)	inconclusive: 25.1 µM [inhibitor, single point]	–
Cc1cccc(-n2c(SCc3ccc(C#N)cc3)nnc2-c2c[nH]c3ccccc23)c1	inconclusive: 28.2 µM [inhibitor, partial curve, poor fit]	–
COc1ccc(C(=O)C2CCCN(Cc3cn[nH]c3-c3ccc(F)cc3)C2)cc1OC (centres undefined)	–	inactive: -17.8%
COc1ccc(-c2[nH]nc3nc(-c4cc(Br)ccc4OC)cc(C(=O)O)c23)cc1	–	inactive: -7.19%
Cc1ccc(-n2c(-c3ccc(Br)cc3)c[n+]3c2CCc2ccc4cccnc4c2-3)cc1	active: 5.01 µM	–
Cc1cc(NCCCn2ccnc2)n2ncc(-c3ccccc3)c2n1	inconclusive: 14.1 µM [inhibitor, single point]	–
COc1cccc2c1C(=O)c1c(O)c3c(c(O)c1C2=O)C[C@@](O)(C(=O)CO)C[C@@H]3O[C@H]1C[C@H](N)[C@@H](O)[C@H](C)O1	active: 0.432 µM	–
CN1CCN(CC(=O)Nc2c(C(=O)c3ccccc3)oc3ccccc23)CC1	inconclusive: 15.8 µM [inhibitor, partial curve, poor fit]	–
Cc1c(C2(O)CCCCC2)[nH]c2cc(C(F)(F)F)ccc12	inconclusive: 25.1 µM [inhibitor, single point]	–
Cc1ccc(NC(=O)c2ccncc2)cc1S(=O)(=O)N(C)C	–	inactive: -4.03%
O=C(c1ccc(F)cc1)C1CCN(C(=O)NCc2ccccc2)CC1	–	inactive: -11.5%
Cc1ccc(NC(=O)NCc2cccnc2)cc1	–	inactive: 20.8%
c1ccc(CC2CCN(c3ncnc4sccc34)CC2)cc1	inconclusive: 0.447 µM [inhibitor, partial curve, poor fit]	–
Cc1cccc(CN2CCC(CNC(=O)Cn3ncc4c([nH]c5ccc(C)cc54)c3=O)CC2)c1	–	inactive: -1.9%
CCN1CCN(Cc2ccc(NC(=O)c3ccc(C)c(/C=C/c4cnc(Nc5cc(N6CCNCC6)nc(C)n5)cn4)c3)cc2C(F)(F)F)CC1	active: 12.6 µM and inconclusive: 15.8 µM [inhibitor, partial curve, poor fit]	–
